The values below come from the supplement of paper PMC5499739.

Whole data set: some 16,000 sequences, median “Z-score” near -0.37, cut for the highest 2% near 3.1. The list shows a part of the results.

This test concerns RBM10 RRM1-ZnF-RRM2 (GST-tagged construct). Nature of the test: RNAcompete 7-mer binding Z-score; higher = stronger binding preference. Put shortly: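 Bound RNA was identified by microarray hybridisation after GST-tagged RBM10 constructs (20 pmol) had been mixed with 1.5 nmol of a designed pool of 241 399 RNAs up to 41 nt, transcribed from microarray-derived DNA templates. Binding ran for 30 min at 4°C in 1 ml Hepes pH 7.8 buffer with KCl, NaCl, glycerol, DTT, BSA and glutathione Sepharose beads, with four 2-min washes at 4°C afterwards. For every heptamer motif, a one-sided Z-score for enrichment was computed across the probes that contained it.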
As to CGAUCAA, the “RNAcompete 7-mer binding Z-score” value was -0.198. For UUGUCGA, the “RNAcompete 7-mer binding Z-score” value is -0.562.

Turning to GGAGCCU, the “RNAcompete 7-mer binding Z-score” value was -0.209. For CAUUUAG the value was -0.657; for UCACCAA, -0.65. For AUGGGAC the value was 2.47; for GUGCGCU, 0.115; for UUGAGGG, 3.15. Consider UUGAAUA, for which the “RNAcompete 7-mer binding Z-score” value is -0.355. The value for UUGAUGA was 0.0823; that for UCACGGG was 0.803; that for CUAGAUC was -0.683. As to UCAUACU, the “RNAcompete 7-mer binding Z-score” value was -0.759. On to ACGCCGC, for which the “RNAcompete 7-mer binding Z-score” value is -0.723.

For GUAUCGG, the “RNAcompete 7-mer binding Z-score” value was 0.752. For GUGCUCA the value was -0.286; for UAACGUC, -0.511.

Take CGAGAAA: the “RNAcompete 7-mer binding Z-score” value is -0.00877.

Consider CUCGAUA, for which the “RNAcompete 7-mer binding Z-score” value was -0.595. In the case of AAAUUUU, the “RNAcompete 7-mer binding Z-score” value was -0.825.

As to AAGAGCC, the “RNAcompete 7-mer binding Z-score” value is -0.541.

As to AGAACUG, the “RNAcompete 7-mer binding Z-score” value was -0.114. The value for CGGGAGA was 1.32; that for GGCCUGG was 0.0532; that for CACGUCU was -0.661.

As to GACAAGG, the “RNAcompete 7-mer binding Z-score” value was 3.01. The value for GCUCUGA was -0.821; that for GGGUUAU was 2.57; that for AUUCAGU was -0.22.

Take AUCUGUC: the “RNAcompete 7-mer binding Z-score” value is -0.803. The value for CUAGGCA was -0.078. The value for UGUUCCC was -0.712; that for GAGUUCU was -0.5; that for AAAGCAG was 0.512.

With CCAUGAG, the “RNAcompete 7-mer binding Z-score” value was -0.264. The value for CCGUUUA was -0.897; that for GACAGGC was 0.8. The value for AUAGACA was 0.0532; that for GUAAAUU was -0.129. For GAGCUUA the value was -0.446; for UCACCCU, -0.766; for UUAGAGU, 0.137. AUGGUAC: the “RNAcompete 7-mer binding Z-score” value is 1.05. For UCGCGGC the value was -0.391; for AAAUCGG, 0.53; for GCACCAG, -0.125.

Turning to ACAACAU, the “RNAcompete 7-mer binding Z-score” value is -0.318. Take CCAUAGU: the “RNAcompete 7-mer binding Z-score” value was -0.643. For CUAAAUU, the “RNAcompete 7-mer binding Z-score” value was -0.664. For UGAUUAU the value was -0.57; for CCUUUGA, -0.894; for GCUUUAU, -0.857.

With AGUACAU, the “RNAcompete 7-mer binding Z-score” value is -0.0889. The value for ACUUUUU was -0.781. The value for UGUGUUU was -0.296. The value for GUCGAUA was -0.103; that for CGUUUUA was -0.704; that for AACAAAA was -0.235. For the sequence CAUGGGC, the “RNAcompete 7-mer binding Z-score” value amounted to 1.76.

ACCGCAC: the “RNAcompete 7-mer binding Z-score” value is -0.624. For UACUCUG the value was -0.883; for CCGUUCC, -0.996.

In the case of GUACCAC, the “RNAcompete 7-mer binding Z-score” value is -0.256.

GUGGGCU: the “RNAcompete 7-mer binding Z-score” value was determined as 1.94. The value for UCUAGGU was -0.103. The value for UGAUAGU was -0.184; that for CUACCAU was -0.664.

Turning to AUGUAAC, the “RNAcompete 7-mer binding Z-score” value is -0.147. Take UUCCCCG: the “RNAcompete 7-mer binding Z-score” value was -0.486. On to UGAGACU, for which the “RNAcompete 7-mer binding Z-score” value was -0.315. For ACAUUAA the value was -0.384; for CGCGUUU, -0.923; for GAUUGUA, 0.0204. For GUACAGA the value was 0.494; for CACAAGC, -0.559. As for AGGCAUA, the “RNAcompete 7-mer binding Z-score” value was found to be 0.239. For AAGCUCG the value was -0.296; for AAACUUG, -0.646; for AGGACGC, 0.0459. For AACUGUA the value was -0.515; for UGUCGGA, 0.232; for CUUUCGC, -0.967. For GUCUGUC the value was -0.504. In the case of ACGGCCA, the “RNAcompete 7-mer binding Z-score” value is -0.202. For UGGAAAC the value was 1.19; for CCCUUUA, -0.999.

Regarding CAAGGGA, the “RNAcompete 7-mer binding Z-score” value was found to be 2.5. The value for AGUACGG was 1.39. Consider CUCUAUU, for which the “RNAcompete 7-mer binding Z-score” value was -0.919.

In the case of GUCAUCA, the “RNAcompete 7-mer binding Z-score” value is -0.515. For ACUACCG the value was -0.606; for GGGAUCU, 0.618.

On to GCCAUAA, for which the “RNAcompete 7-mer binding Z-score” value was -0.69. The value for GGAAUCC was 0.155. The value for GUUGCAA was 0.00216; that for AAAGGCU was 0.796; that for GCGUAGG was 2.21. AUUCCCG: the “RNAcompete 7-mer binding Z-score” value is -0.821. The value for AUGCAGA was 0.243; that for AGCUAUA was -0.224; that for CCAGGUA was 0.377.

Consider AGACGGC, for which the “RNAcompete 7-mer binding Z-score” value was -0.326. For GGUACGA the value was 1.4; for CUUACCA, -0.657; for UUAUUUC, -0.792. For AUUUCGC, the “RNAcompete 7-mer binding Z-score” value is -0.996. For GCAGUCU the value was -0.533; for GGACCCC, -0.103; for CCGCAAA, -0.69. The value for GGCAAGA was 1.07; that for ACCGCGA was -0.628. The value for UUCCAAU was -0.621; that for GAUCAGC was -0.205; that for UUACAGC was -0.42. Turning to UCAAAGC, the “RNAcompete 7-mer binding Z-score” value was -0.304.

GGCGGUG: the “RNAcompete 7-mer binding Z-score” value was 2.23. For AAGGCAC the value was 1.35.
